In PMC4336329 (PLoS ONE, 2015):
Screen size: about 310,000 compounds; about 14,000 (4.5%) showed an effect of 50% or more. The effect is printed as a negative number. This is one part of the list.

target: human ether-à-go-go-related gene (hERG) potassium channel (human, UniProt Q12809); test: primary screen, population patch clamp on CHO cells stably expressing hERG
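Further: peak tail current of the secondary pulse compared with the same well before compound.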

Sequence of human ether-à-go-go-related gene (hERG) potassium channel (Q12809 whole entry, looked up): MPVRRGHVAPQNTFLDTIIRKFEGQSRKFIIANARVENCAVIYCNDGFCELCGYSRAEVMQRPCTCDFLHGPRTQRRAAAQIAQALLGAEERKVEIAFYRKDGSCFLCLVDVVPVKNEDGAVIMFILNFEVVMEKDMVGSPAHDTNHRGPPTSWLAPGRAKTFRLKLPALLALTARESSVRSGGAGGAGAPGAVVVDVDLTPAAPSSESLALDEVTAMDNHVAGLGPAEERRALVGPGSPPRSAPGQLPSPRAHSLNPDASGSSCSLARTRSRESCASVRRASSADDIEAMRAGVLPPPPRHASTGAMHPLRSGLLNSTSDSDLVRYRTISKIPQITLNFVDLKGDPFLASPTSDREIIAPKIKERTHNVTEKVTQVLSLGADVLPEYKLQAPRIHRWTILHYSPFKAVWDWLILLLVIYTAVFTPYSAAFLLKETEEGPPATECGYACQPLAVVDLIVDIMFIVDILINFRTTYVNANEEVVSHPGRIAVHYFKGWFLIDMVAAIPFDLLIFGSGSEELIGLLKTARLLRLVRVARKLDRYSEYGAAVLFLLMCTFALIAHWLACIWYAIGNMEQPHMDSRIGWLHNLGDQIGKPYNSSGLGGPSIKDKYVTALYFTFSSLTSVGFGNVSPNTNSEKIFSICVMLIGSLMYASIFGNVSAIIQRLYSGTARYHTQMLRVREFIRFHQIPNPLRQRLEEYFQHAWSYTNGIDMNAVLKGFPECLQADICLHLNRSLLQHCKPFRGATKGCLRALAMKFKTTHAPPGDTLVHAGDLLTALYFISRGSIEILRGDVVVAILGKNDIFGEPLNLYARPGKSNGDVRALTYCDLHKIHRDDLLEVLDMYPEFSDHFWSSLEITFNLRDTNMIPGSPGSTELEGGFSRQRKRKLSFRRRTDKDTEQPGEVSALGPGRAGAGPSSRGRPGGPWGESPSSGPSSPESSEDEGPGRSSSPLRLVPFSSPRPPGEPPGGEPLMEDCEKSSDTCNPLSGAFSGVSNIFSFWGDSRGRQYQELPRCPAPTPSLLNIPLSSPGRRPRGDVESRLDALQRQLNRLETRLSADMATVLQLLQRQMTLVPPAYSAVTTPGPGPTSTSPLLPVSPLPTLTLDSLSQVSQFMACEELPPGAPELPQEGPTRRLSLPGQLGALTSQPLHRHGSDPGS

| SMILES | hERG current change (%, negative = inhibition) at 10uM |
| --- | --- |
| COCCNC(=O)CN(c1cc(C(F)(F)F)ccc1Cl)S(C)(=O)=O | 6.08% |
| O=c1cc(-c2ccc(F)cc2)oc2ccccc12 | -7.04% |
| O=[N+]([O-])c1ccc(-[n+]2c(-c3ccccc3)cc(-c3ccccc3)cc2-c2ccccc2)cc1.[O-][Cl+3]([O-])([O-])[O-] | 4.73% |
| O=c1cc(O)n(-c2ccc(Cl)cc2)c(=S)[nH]1 | 6.26% |
| CCOc1ccc(S(=O)(=O)NCc2ccccn2)c(C)c1C | 6.62% |
| Cc1ccc(S(=O)(=O)NNC(=O)c2sc(NS(=O)(=O)c3ccccc3)nc2C)cc1 | 9.48% |
| Cc1ccc(C(=O)Nn2cnc3ccccc3c2=O)cc1C | -4.89% |
| O=C(NC(=S)NC1CCSC1=O)c1ccccc1F (centres unmarked) | 9.75% |
| O=C(COc1coc(CN2CCCc3ccccc32)cc1=O)Nc1ccccc1 | -28.2% |
| CCN1CCSc2ccc(C(=O)NCc3cccc(Br)c3)cc21 | -0.0439% |
| O=C(NC(=S)Nc1ccc(S(=O)(=O)Nc2nccs2)cc1)c1cccc(F)c1 | 0.753% |
| CC(OC(=O)c1cccc(-n2cnnn2)c1)C(=O)c1ccccc1 (centres unmarked) | -17% |
| Cc1cc(Br)cc(C)c1OCC(=O)NNC(=O)CCC(=O)NCc1ccccc1 | 13% |
| Cn1c(CCN2CCOCC2)nc2cc(NC(=O)COc3ccc([N+](=O)[O-])cc3)ccc21 | -21.1% |
| COc1ccc(C)cc1NC(=O)CCN1CC(C)OC(C)C1.Cl (centres unmarked) | 15% |
| CC(Cc1ccccc1)NC(=O)c1cc([N+](=O)[O-])ccc1Cl (centres unmarked) | -4.69% |
| CCS(=O)(=O)Nc1c(C(=O)O)[nH]c2ccccc12 | -7.59% |
| COc1ccc(OC)c(/C(O)=C/C(=O)C(=O)Nc2cc(C)ccc2OC)c1 | 13% |
| COc1ccc(S(=O)(=O)N2CCCCCC2)cc1C(=O)N(CC(C)C)C1CCS(=O)(=O)C1 (centres unmarked) | -20.9% |

| SMILES | hERG current change (%, negative = inhibition) at 10uM |
| --- | --- |
| CCCN(CCC)S(=O)(=O)c1cccc(C(=O)N=c2sccn2C)c1 | 15.2% |
| Cc1ccc(S(=O)(=O)N2CCC(C(=O)NNC(=O)c3ccccc3O)CC2)cc1 | -3.99% |
| COc1ccccc1NC(=O)COC(=O)c1ccc(N2CCCC2=O)cc1 | -3.12% |
| Cc1ccc(-n2c(SCC(N)=O)nc3c(oc4ccccc43)c2=O)cc1 | 14.7% |
| O=C(CCc1nc2ccccc2[nH]1)N1CCN(C(=O)c2ccco2)CC1 | 6.93% |
| CSC(=Nc1ccccc1)C1=C(O)COC1=O | 12% |
| CC(NC(=O)c1ccccc1F)c1nnc(SCC(=O)Nc2nnc(C3CC3)s2)n1C (centres unmarked) | 16.2% |
| COCC1CCCN(Cc2cn(-c3ccccc3F)nc2-c2cc(C)sc2C)C1 (centres unmarked) | -39.4% |
| CC(Sc1nnc(C2CC2)n1C1CC1)C(=O)N(C)C1(C#N)CCCCC1 (centres unmarked) | -17.4% |
| COc1ccccc1CNC(=O)[C@@H]1CCCN1C(=O)C1CCN(S(=O)(=O)c2ccc(C)cc2)CC1 | -10.2% |
| Cc1ccc(S(=O)(=O)N2CCCC(C(=O)NCC3COCCO3)C2)cc1 (centres unmarked) | -7.48% |
| Cc1ccc(C(=O)Nn2c(C)nc3ccccc3c2=O)cc1C | 23.2% |
| Cl.c1ccc(CCNCc2ccccc2)cc1 | -9.4% |
| Cc1ccc(OCCNC(=O)/C=C/c2ccccc2)cc1C | -8.32% |
| Cc1ccccc1N1C(=S)NC2c3ccccc3OC1(C)C2C(=O)N(C)C (centres unmarked) | -10.7% |
| C/C(=N\NC(=O)C(C)n1nc(C)c([N+](=O)[O-])c1C)c1ccccc1O (centres unmarked) | -12.1% |
| O=C1[C@H]2C(c3ccccc3)=NN(c3ccccc3)[C@H]2C(=O)N1c1ccccc1 | 12.3% |
| Cc1cc(O)c2c(CN3CCN(Cc4ccccc4)CC3)cc(=O)oc2c1 | -13.1% |
| CC(C)CC1Nc2ncnc(N3CCN(c4ccccc4)CC3)c2N(Cc2ccc(Br)cc2)C1=O.O=C(O)C(F)(F)F (centres unmarked) | -4.72% |

| SMILES | hERG current change (%, negative = inhibition) at 10uM |
| --- | --- |
| Cn1c(C(=O)NCCN2CCOCC2)cc2c(=O)n(C)c3ccccc3c21 | -3.32% |
| COc1ccc(-n2c(COc3ccc(Cl)cc3)nnc2SCc2ccc(C#N)cc2)cc1 | 0.977% |
| CCCCn1c(NC(C)=O)c(C#N)c2nc3ccccc3nc21 | 14.1% |
| O=C(COC(=O)c1cc(=O)c2ccccc2o1)NC1CCCC1 | 16.8% |
| O=C1CC(c2ccc(F)cc2)CC2=C1C=Nc1ccccc1N2 (centres unmarked) | -72.8% |
| CSc1nc(N)nc(SCC(=O)CC(=O)OC(C)C)c1C#N | -11.5% |
| O=C(CCOc1ccccc1)N1CCN(c2ccc(O)cc2)CC1 | -34.4% |
| COc1ccc(Cn2ccnc2SCC(=O)Nc2nnc(C)s2)cc1 | 12.2% |
| CCCCNC(=O)c1cc2c(=O)n3cccc(C)c3nc2s1 | 7.96% |
| O=C1CC(c2ccccc2)NC(=O)N1 (centres unmarked) | -10.5% |
| O=C(CC1C(=O)NCCN1Cc1ccc(F)cc1)NCCOc1cccnc1 (centres unmarked) | 8.34% |
| COc1ccc(-c2nnc(-c3cc(OC)c(OC)c(OC)c3)o2)cc1OC | -5.96% |
| COc1cc(NS(=O)(=O)c2ccc(NC(=O)CCC(=O)O)cc2)nc(OC)n1 | 7.35% |
| CC(C)c1cc(C(=O)NC2CCCCC2)no1 | -1.07% |
| O=C(O)COc1ccccc1 | 23.6% |
| Cc1cc(NS(=O)(=O)c2ccc(NC(=O)CSc3nc4ncc(Cl)cc4[nH]3)cc2)nc(C)n1 | 18.5% |
| COc1cccc(/C=C(/C#N)c2nc3ccccc3[nH]2)c1OC(C)C(=O)O (centres unmarked) | 10.2% |
| COc1ccc(NS(=O)(=O)c2c(C)cc(C)cc2C)cc1 | -7.32% |
